# Assay results reported in the supplement of paper PMC3334620.
# Whole data set: some 33,000 sequences, median “E-score (-0.5 to 0.5)” near -0.035, cut for the highest 2% near 0.34. This is one part of the list.
# Target: T1, Mot3 (UniProt P54785)
# T1 sequence: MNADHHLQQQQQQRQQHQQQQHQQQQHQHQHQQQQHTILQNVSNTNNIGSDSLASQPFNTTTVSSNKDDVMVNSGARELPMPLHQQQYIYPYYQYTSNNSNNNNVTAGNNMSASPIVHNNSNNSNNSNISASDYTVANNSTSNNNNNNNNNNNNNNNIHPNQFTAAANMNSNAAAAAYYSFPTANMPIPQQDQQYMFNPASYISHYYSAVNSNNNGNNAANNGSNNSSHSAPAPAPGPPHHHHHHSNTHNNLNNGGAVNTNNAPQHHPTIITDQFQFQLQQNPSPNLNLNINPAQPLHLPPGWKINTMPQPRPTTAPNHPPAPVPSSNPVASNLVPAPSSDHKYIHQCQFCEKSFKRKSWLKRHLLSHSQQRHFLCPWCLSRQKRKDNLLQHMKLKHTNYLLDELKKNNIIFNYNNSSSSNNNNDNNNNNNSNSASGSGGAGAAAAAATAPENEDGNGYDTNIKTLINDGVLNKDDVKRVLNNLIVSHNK
# Experiment: PBM E-score (8-mer binding enrichment) (E-score (-0.5 to 0.5)); higher = stronger / more preferred TF binding; most listed sequences are background and not binding sites
# Conditions: protein concentration: 200 nM; construct: GST-full length
# Procedure, shortened: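 Bound GST-tagged yeast transcription factors, applied at about 100-200 nM to double-stranded universal all-10-mer Agilent arrays, were detected with fluorescent anti-GST. Scans were normalised with masliner. A modified Wilcoxon-Mann-Whitney statistic, the E-score, was assigned to each ungapped eight-base word pooled with its reverse complement by the Universal PBM Analysis Suite.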
row,Sequence,PBM E-score
1,CGGGAATC,-0.402
2,TAACATTA,0.29
3,AGCAAAGC,-0.0367
4,CCTCACGA,-0.174
5,TGCGAAAA,0.224
6,ATCTCACA,-0.0227
7,CCAATATC,-0.275
8,ACCTACCC,-0.176
9,ATAATTCC,0.0837
10,GTCCGGGA,-0.131
11,CATCCAAA,0.159
12,TAGGACCA,-0.166
13,CGTGCGAC,-0.0716
14,CTCAATGA,-0.0587
15,CCCCGTAG,-0.165
16,AGTGGCAG,-0.238
17,ATTATATG,0.142
18,GGTTCTCA,0.0406
19,CACTTCGG,-0.122
20,GTCGGGCA,-0.0696
21,ACCTAGAG,-0.0569
22,ACTTTAGG,0.175
23,AAATCGAT,0.00707
24,CACAGGAC,-0.175
25,CAAGCGCC,-0.0468

row,Sequence,PBM E-score
1,AGGGTTGC,0.0524
2,AGTAGTTC,-0.00861
3,AGACGTTG,-0.0528
4,ACCGGAAC,-0.264
5,ACCCGTTG,-0.0767
6,CTTTGCAA,-0.0316
7,GACTCCGC,-0.289
8,CCTCTCAG,-0.149
9,GGCGCTAA,-0.154
10,AGAATGCT,-0.1
11,TACATGGA,0.346
12,AAATGTTG,0.0783
13,AAGAGAGG,-0.0458
14,GAAAAGTC,-0.0719
15,ATTATTGA,0.0959
16,ATGAAACG,0.0168
17,GAGCCTAC,0.273
18,CCCCGTAA,-0.0187
19,CCAGCCAC,-0.19
20,CAACTTAC,0.144
21,AATCAAGC,-0.177
22,AGACACCC,0.0261
23,AGCCGCTA,-0.161
24,CATCAGGA,0.167
25,AGGTGTCG,0.124

row,Sequence,PBM E-score
1,CTGGCCCA,-0.265
2,ACGCTGTG,0.207
3,GACTTAAC,0.0265
4,ACTCAAAT,0.0774
5,ACAACAAC,0.274
6,GCACGGCA,0.151
7,AAATTCCA,0.0982
8,TCAGAGCA,-0.281
9,GGGAGGTA,0.0239
10,ATATGATA,0.185
11,CGCTCCAG,-0.0583
12,GAGTGCGC,-0.229
13,ATAATATA,0.215
14,ATCACGTG,0.098
15,AATTAATA,0.229
16,AAGCTTCG,-0.115
17,ACTTATTC,-0.229
18,ACCCGGTC,-0.167
19,CGCATGAC,-0.0222
20,TCGTGCAA,0.148
21,CATAATCA,0.119
22,CCTCTCTC,-0.252
23,AGTGTCTG,-0.113
24,ACTGATGC,0.0402
25,CCGGCTTC,-0.338

row,Sequence,PBM E-score
1,GAGGGTGC,-0.215
2,AAGTTGAT,0.109
3,AACTGCAG,-0.0674
4,GTTATTAA,0.169
5,AGTGATCA,-0.219
6,CCAAACCA,-0.0679
7,GGCGCACC,-0.142
8,AGACGTAT,0.0119
9,ACACGCAA,0.262
10,GCCCCGGA,-0.162
11,GCAACCCA,0.0269
12,GCTGCAGA,-0.0977
13,GACACTTA,0.187
14,AAACACTT,0.117
15,ATGTCAAA,0.242
16,TAGGATCA,0.0879
17,AACGCGAG,0.0856
18,AATTAGAA,0.0347
19,AGGCGGGC,-0.164
20,ACATGTCA,0.319
21,ACTGACCC,-0.172
22,AGTAGTGG,-0.0203
23,CGGGTCTA,-0.0246
24,AGAACTCA,0.0456
25,ACCCGTAC,-0.0782

row,Sequence,PBM E-score
1,ATAAAGGC,0.186
2,ACGATACG,0.0539
3,CGGTCTCC,-0.283
4,CGAAGGGA,-0.0448
5,GGCAACGA,0.285
6,GAATCGGA,-0.0835
7,CCCGACCG,-0.247
8,CTAGTCCA,-0.134
9,AGTTTGAT,-0.121
10,CAGACACC,-0.0175
11,CAACCCCA,0.0886
12,CAAAGTGA,-0.0327
13,CTCTGACA,0.0111
14,AATACCGT,-0.00924
15,GCCGTGCC,0.346
16,TCAGTACA,0.131
17,CTACGAAA,-0.00286
18,CATAAAGA,0.174
19,AGCACCAC,-0.22
20,ATGTTCCC,0.024
21,AACTGCAA,-0.0216
22,CACCGTGC,0.0728
23,CCCGGACC,-0.202
24,CCGCGGAA,0.00089
25,ATAGGCGC,0.249

row,Sequence,PBM E-score
1,GAACTCAC,-0.064
2,CTTGAAGC,-0.0746
3,CGGATGCA,-0.217
4,GGTGAGAC,-0.13
5,GAATTTGC,-0.0228
6,AGTCTTCC,-0.0105
7,CCCCGTCA,-0.2
8,ACGTATAA,0.234
9,ACCCCTAG,-0.208
10,ATTCCAGC,-0.168
11,CGACAATC,-0.149
12,ACTAAAGT,0.0146
13,AGGAAAGC,0.405
14,AGTCCTCC,-0.221
15,CCACGAGA,-0.283
16,CCCAGACA,-0.174
17,TATTTGGA,0.0492
18,GGCTATGA,-0.214
19,CATAGGAA,0.231
20,GAGGACCA,-0.144
21,GCACTGAC,-0.0708
22,ACACAAAC,0.207
23,CCCGATGC,-0.292
24,GCCCTGGA,-0.172
25,AGAACCCA,-0.215

row,Sequence,PBM E-score
1,ACACCAGT,-0.0584
2,AATTCGTC,-0.0787
3,ATCAATAG,-0.00649
4,AACCCTTC,-0.117
5,CTCCCTCA,-0.286
6,CTAGAGTA,0.0252
7,ACTATCCA,-0.204
8,ATAGGACA,-0.101
9,CCACGTTA,0.224
10,AAATGGGG,-0.133
11,CGCGCAAC,-0.041
12,ATCCGTGC,0.0629
13,GTGTGTTA,0.348
14,AATCTAAT,0.0108
15,CGGCGGAA,-0.148
16,ATGGACCA,0.039
17,AAGGCTTA,0.134
18,AAATGGCA,0.101
19,GTAGTATA,0.148
20,ATGGGACG,-0.215
21,CAAAGGGC,-0.0614
22,CATGCTCG,-0.112
23,AAGGCCGT,-0.12
24,CTTTTAAA,0.107
25,ATTACCTG,0.336

row,Sequence,PBM E-score
1,CCGCAGCA,-0.247
2,ACGCTTGA,0.106
3,ACCGCATG,-0.181
4,AGTGTTAC,0.193
5,AGGCGCCG,0.222
6,CGAAGGAA,0.39
7,AACGTAAT,0.318
8,AGGCTCGC,0.121
9,ATAAGGGA,-0.0511
10,ATCGGAGC,-0.322
11,ATGTTAAT,0.338
12,GAGGGACA,-0.248
13,TCCGTTCA,-0.194
14,AGAGTACG,-0.00983
15,CCAGCCGC,-0.268
16,AGATTAAA,0.0194
17,CCATTGAC,-0.0604
18,ATTCTAAA,0.119
19,GTTGTACA,0.25
20,GGCCATGA,-0.223
21,GCTTATGA,-0.0761
22,GCCGTTGA,-0.125
23,AACATTGG,0.0641
24,ATAGCTAC,0.0401
25,ACAATAAA,-0.0214

row,Sequence,PBM E-score
1,CCCGTTAA,-0.00725
2,GCTCGAGA,-0.218
3,ACGACGCT,-0.0703
4,CGACGTCC,0.0279
5,AGGTGTTA,0.225
6,AGACATCA,-0.134
7,CAGGGTTA,-0.034
8,ACTGTCAC,-0.251
9,AAGTTGTA,0.237
10,CCACATCG,-0.121
11,CGGGGATA,-0.188
12,TCTCTGCA,-0.0721
13,TCTGAAGA,-0.316
14,ACGCCACC,-0.0804
15,ATAATTTG,0.0359
16,AAACAACA,0.271
17,CGATTATC,-0.0722
18,GAGAACGA,-0.0552
19,CGGGGTCC,-0.122
